# Measurements as given in PubChem BioAssay (Tox21).
# Where “and” joins values, the source holds several entries; their conditions need not be identical. Identical values can stand only once. The inconclusive results got no clear call from the source; some entries with a clear call stand among them for comparison. For part of these data: A potency beside an inconclusive call is a rough fit, not a confirmed value. More than one record can exist for a structure, and the calls need not agree. Calls of active or inactive are those of the source. Unless noted, the call rests on the fitted dose curve; in most records, active means well fitted curve in the direction sought with a large enough effect in the repeat runs; inconclusive means weak or mixed curves; inactive means no such curve, though single readings can be large; an effect the other way counts as inactive or inconclusive.
# How the values were obtained:
# [1] = qHTS assay to identify small molecule antagonists of the peroxisome proliferator-activated receptor gamma (PPARg) signaling pathway - cell viability counter screen (AID 743194); settings: PPARg-bla HEK293H viability, CellTiter-Glo luminescence, 17 h, co-treated with 50 nM rosiglitazone; activity change, negative = cytotoxicity: at 62.6 µM (top of the series) unless noted; further: nearly all actives have a fitted effect of over 55% in size; further: potency means the concentration at half of the fitted maximal effect; on activity change, negative = cytotoxicity: on the % scale 0 is the no-effect control and ±100 the full control effect
# Summary of the method: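 PPARg-UAS-bla HEK293H cells were plated, rested 5 h at 37 C, then treated with compounds plus rosiglitazone (50 nM final) for 17 h at 37 C; viability was then read by CellTiter-Glo luminescence after 30 min at room temperature.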
# [2] = qHTS assay to identify small molecule agonists of the vitamin D receptor (VDR) signaling pathway - cell viability counter screen (AID 743224); further: nearly all actives have a fitted effect of over 50% in size; further: potency means the concentration at half of the fitted maximal effect; on activity change, negative = cytotoxicity: on the % scale 0 is the no-effect control and ±100 the full control effect
# Summary of the method: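 VDR-bla cell line, quantitative HTS format; 16 h compound incubation (37C, 5% CO2); ATP-based CellTiter-Glo luminescence measured in the reporter assay wells.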
# [3] = qHTS RealTime-Glo MT Cell Viability Assay in HepG2 cells - 24 hour (AID 1224867); further: nearly all actives have a fitted effect of over 50% in size; further: potency means the concentration at half of the fitted maximal effect
# Summary of the method: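 HepG2 cells (600/well) were dispensed with RealTime-Glo reagents, incubated 5 h at 37 °C, then treated with compounds in DMSO for up to 40 h. Nonlytic NanoLuc luminescence reflecting viable cells was read at each stated time point.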
# [4] = qHTS assay to identify small molecule antagonists of the progesterone receptor (PR) signaling pathway - cell viability counter screen (AID 1346798); further: nearly all actives have a fitted effect of over 50% in size; further: potency means the concentration at half of the fitted maximal effect
# Summary of the method: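 Cytotoxicity read as CellTiter-Glo luminescence (30 min, room temperature) in the same wells as the beta-lactamase readout. HEK293T PR-UAS-bla cells in charcoal-stripped 2% FBS received compound and R5020, then 16 h at 37C, 5% CO2.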
# [5] = biological target: Peroxisome proliferator-activated receptor gamma (Homo sapiens) (UniProt P37231); test: qHTS assay to identify small molecule agonists of the peroxisome proliferator-activated receptor gamma (PPARg) signaling pathway (AID 743094; active means well fitted activation curve with a large enough effect in the signal ratio in the repeat runs, not every such curve was filed as active; inconclusive means weak or mixed curves, or effect the other way; inactive means no such curve, though single readings can be large or run the other way; the % refers to the signal ratio; further: on the % scale 0 is the no-effect control and ±100 the full control effect); settings: HEK293H PPARg-UAS-bla, beta-lactamase FRET ratio, 17 h; activation: at 57 µM (top of the series) unless noted
# Sequence of UniProt P37231 (P37231 whole entry, looked up): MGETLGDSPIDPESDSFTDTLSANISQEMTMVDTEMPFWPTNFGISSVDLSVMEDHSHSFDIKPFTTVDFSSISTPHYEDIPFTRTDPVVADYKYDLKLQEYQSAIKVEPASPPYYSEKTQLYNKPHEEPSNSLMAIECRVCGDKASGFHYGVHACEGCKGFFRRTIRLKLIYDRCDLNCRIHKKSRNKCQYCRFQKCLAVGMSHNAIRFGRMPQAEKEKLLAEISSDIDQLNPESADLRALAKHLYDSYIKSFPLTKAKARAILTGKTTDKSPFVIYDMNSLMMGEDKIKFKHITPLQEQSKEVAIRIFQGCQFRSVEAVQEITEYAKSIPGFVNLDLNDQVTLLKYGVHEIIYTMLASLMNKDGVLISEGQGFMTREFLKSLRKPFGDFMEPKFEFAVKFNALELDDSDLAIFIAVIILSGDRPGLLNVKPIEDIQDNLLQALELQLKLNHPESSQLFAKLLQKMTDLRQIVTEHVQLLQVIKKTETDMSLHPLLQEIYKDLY
# Summary of the method: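 Stably transfected HEK293H cells (GeneBLAzer PPARg UAS-bla) were incubated with test substances for 17 h at 37C after a 5 h pre-incubation; beta-lactamase activity was then detected by FRET substrate fluorescence.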
# [6] = biological target: Nuclear receptor subfamily 1 group I member 2 (Homo sapiens) (UniProt O75469); test: Human pregnane X receptor (PXR) small molecule agonists, qHTS assay (AID 1346982); further: potency means the concentration at half of the fitted maximal effect; nearly all actives have a fitted effect of over 35% in size
# Sequence of UniProt O75469 (O75469 whole entry, looked up): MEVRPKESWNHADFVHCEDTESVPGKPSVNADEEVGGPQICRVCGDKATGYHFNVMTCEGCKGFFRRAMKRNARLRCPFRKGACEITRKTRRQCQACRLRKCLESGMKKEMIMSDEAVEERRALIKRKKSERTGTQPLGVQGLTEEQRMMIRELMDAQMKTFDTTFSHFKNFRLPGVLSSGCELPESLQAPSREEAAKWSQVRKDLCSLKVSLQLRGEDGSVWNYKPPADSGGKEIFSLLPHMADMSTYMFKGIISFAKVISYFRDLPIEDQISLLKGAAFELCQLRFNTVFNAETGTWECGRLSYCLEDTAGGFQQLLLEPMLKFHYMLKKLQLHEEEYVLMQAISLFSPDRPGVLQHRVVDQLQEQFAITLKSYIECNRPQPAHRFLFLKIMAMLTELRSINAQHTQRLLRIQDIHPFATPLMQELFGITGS
# Summary of the method: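 Luminescence (ONE-Glo, 30 min RT) after 24 hr compound exposure of PXR-Luc HepG2 cells; cells rested 5 hr post-plating in 5% charcoal-stripped FBS medium.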
# [7] = biological target: Estrogen receptor (Homo sapiens) (UniProt P03372); test: qHTS assay to identify small molecule antagonists of the estrogen receptor alpha (ER-alpha) signaling pathway (AID 743069; active means well fitted curve in the direction sought with a large enough effect in the signal ratio in the repeat runs, not every such curve was filed as active; inconclusive means weak or mixed curves, or effect the other way; inactive means no such curve, though single readings can be large or run the other way; the % refers to the signal ratio; further: potency means the concentration at half of the fitted maximal effect); settings: HEK293 ER-alpha-UAS-bla, beta-lactamase ratio, antagonist mode; activity, negative = inhibition: at 69.4 µM (top of the series) unless noted
# Sequence of UniProt P03372 (P03372 whole entry, looked up): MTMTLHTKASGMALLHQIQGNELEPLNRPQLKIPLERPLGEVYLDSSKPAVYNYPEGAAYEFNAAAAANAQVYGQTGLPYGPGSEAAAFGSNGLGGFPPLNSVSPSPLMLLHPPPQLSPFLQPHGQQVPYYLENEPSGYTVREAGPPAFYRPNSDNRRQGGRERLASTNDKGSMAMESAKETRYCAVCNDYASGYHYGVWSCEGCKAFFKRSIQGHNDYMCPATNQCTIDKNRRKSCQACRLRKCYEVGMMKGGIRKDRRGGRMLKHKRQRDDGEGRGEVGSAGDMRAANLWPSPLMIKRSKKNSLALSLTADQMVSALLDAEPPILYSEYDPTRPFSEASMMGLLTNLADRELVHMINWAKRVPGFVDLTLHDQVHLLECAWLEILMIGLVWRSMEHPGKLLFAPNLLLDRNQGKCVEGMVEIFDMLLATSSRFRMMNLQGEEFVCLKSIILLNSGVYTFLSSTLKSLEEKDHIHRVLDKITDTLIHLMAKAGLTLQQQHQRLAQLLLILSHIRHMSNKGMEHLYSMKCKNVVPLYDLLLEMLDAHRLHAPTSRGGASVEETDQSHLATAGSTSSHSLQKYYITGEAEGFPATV
# Summary of the method: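 HEK293 cells stably carrying an ER-alpha-UAS-bla beta-lactamase reporter were pre-cultured overnight in 2% charcoal-stripped FBS medium. Test compounds in DMSO were added together with 17beta-estradiol for 18 hr at 37C. Read-out was fluorescence after 2 hr with LiveBLAzer B/G FRET substrate at room temperature.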
# [8] = biological target: Bile acid receptor (Homo sapiens) (UniProt Q96RI1); test: qHTS assay to identify small molecule antagonists of the farnesoid-X-receptor (FXR) signaling pathway (AID 743217; active means well fitted inhibition curve with a large enough effect in the signal ratio in the repeat runs, not every such curve was filed as active; inconclusive means weak or mixed curves, or effect the other way; inactive means no such curve, though single readings can be large or run the other way; the % refers to the signal ratio; further: potency means the concentration at half of the fitted maximal effect); settings: HEK293T FXR-UAS-bla, beta-lactamase ratio, CDCA-stimulated, 16 h; activity change, negative = inhibition: at 62.6 µM (top of the series) unless noted
# Sequence of UniProt Q96RI1 (Q96RI1 whole entry, looked up): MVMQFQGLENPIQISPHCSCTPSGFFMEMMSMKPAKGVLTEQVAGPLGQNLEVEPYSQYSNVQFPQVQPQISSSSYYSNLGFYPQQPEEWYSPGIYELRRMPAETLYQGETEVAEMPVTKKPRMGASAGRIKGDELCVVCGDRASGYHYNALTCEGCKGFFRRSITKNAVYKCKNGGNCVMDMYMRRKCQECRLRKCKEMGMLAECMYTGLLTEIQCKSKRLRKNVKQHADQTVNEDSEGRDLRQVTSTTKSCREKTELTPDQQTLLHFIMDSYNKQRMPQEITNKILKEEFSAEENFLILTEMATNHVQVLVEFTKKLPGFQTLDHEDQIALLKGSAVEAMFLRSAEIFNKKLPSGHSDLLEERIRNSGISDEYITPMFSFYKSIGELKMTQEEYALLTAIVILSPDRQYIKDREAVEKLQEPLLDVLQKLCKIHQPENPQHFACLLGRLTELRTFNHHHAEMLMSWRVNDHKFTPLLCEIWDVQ
# Summary of the method: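 Beta-lactamase reporter under UAS control in HEK 293T cells; compound exposure 16 h at 37 °C in the presence of chenodeoxycholic acid (50 uM final); signal from B/G FRET substrate after 2 h at room temperature.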
# [9] = qHTS assay to identify small molecule agonists of the farnesoid-X-receptor (FXR) signaling pathway - cell viability counter screen (AID 743218); settings: FXR-bla HEK293T viability, CellTiter-Glo luminescence, 16 h; viability change, negative = cytotoxic: at 62.6 µM (top of the series) unless noted; further: nearly all actives have a fitted effect of over 45% in size; further: potency means the concentration at half of the fitted maximal effect
# Summary of the method: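 In GeneBLAzer FXR-UAS-bla HEK 293T cells, compounds act for 16 h at 37 C. Cell viability is then scored in the reporter wells by CellTiter-Glo, 30 min at RT, luminescence.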
# [10] = qHTS assay to identify small molecule antagonists of the estrogen related receptor (ERR) signaling pathway from Tox21 library (AID 1224848); further: nearly all actives have a fitted effect of over 50% in size; further: potency means the concentration at half of the fitted maximal effect
# Summary of the method: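 Cells: ERR line, 2,000/well; 6 h preincubation 37 C/5% CO2. Cpd in DMSO via pin tool; 18 h, 37 C. ONE-Glo, 30 min RT, luminescence.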
# [11] = qHTS assay to identify small molecule antagonists of the estrogen receptor alpha (ER-alpha) signaling pathway - cell viability counter screen (AID 743074; calls by dose curve; further: potency means the concentration at half of the fitted maximal effect; nearly all actives have a fitted effect of over 45% in size)
# [12] = A CellTox Green Cytotoxicity Assay to monitor cytotoxicity in HEK293 cells - 40 hour (AID 1224871); further: nearly all actives have a fitted effect of over 45% in size; further: potency means the concentration at half of the fitted maximal effect
# Summary of the method: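 Each value comes from one timepoint of a single continuous run in which HEK293 cells with CellTox Green were exposed to compound for up to 40 h at 37 C, dye fluorescence rising with cell death.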
# [13] = biological target: Estrogen receptor beta (Homo sapiens) (UniProt Q92731); test: qHTS assay to identify small molecule agonists of the estrogen receptor beta (ER-beta) signaling pathway (AID 1259377; active means well fitted activation curve with a large enough effect in the signal ratio in the repeat runs, not every such curve was filed as active; inconclusive means weak or mixed curves, or effect the other way; the % refers to the signal ratio; further: on the % scale 0 is the no-effect control and ±100 the full control effect); settings: ER-beta-UAS-bla HEK293T, beta-lactamase FRET ratio, 16 h; activation: at 92.4 µM (top of the series) unless noted
# Sequence of UniProt Q92731 (Q92731 whole entry, looked up): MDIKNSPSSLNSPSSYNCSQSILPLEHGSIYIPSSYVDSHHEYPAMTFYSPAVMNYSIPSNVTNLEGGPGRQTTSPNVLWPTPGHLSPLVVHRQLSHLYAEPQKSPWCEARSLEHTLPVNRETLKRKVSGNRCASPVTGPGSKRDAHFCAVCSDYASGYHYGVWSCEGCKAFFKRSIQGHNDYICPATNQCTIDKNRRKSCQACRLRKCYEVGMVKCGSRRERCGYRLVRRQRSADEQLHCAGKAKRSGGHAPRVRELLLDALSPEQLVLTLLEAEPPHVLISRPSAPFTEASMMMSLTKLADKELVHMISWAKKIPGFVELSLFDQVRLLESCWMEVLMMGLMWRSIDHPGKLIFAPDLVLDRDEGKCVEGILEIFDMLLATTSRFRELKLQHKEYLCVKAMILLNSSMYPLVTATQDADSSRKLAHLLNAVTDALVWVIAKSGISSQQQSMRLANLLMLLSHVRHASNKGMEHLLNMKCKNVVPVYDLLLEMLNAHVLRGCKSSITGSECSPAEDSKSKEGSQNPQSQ
# Summary of the method: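 Ratiometric beta-lactamase FRET read-out came after 2 h substrate loading at room temperature. It followed 16 h compound treatment at 37C of GripTite HEK293T cells carrying a UAS-bla reporter, plated in 2% charcoal-stripped FBS medium.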
# [14] = qHTS assay to identify small molecule antagonists of the vitamin D receptor (VDR) signaling pathway - cell viability counter screen (AID 743225); settings: VDR-bla HEK293T viability, CellTiter-Glo luminescence, 16 h; viability change, negative = cytotoxic: at 61 µM (top of the series) unless noted; further: nearly all actives have a fitted effect of over 50% in size; further: potency means the concentration at half of the fitted maximal effect
# Summary of the method: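 Cytotoxicity counter screen read by CellTiter-Glo luminescence (30 min, room temperature) in the same wells as the VDR-bla antagonist readout. HEK 293T VDR-UAS-bla cells had 16 h at 37C with compound and 3 nM (final) 1-alpha,25-dihydroxyvitamin D3, then 2 h with FRET substrate.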
# [15] = biological target: Estrogen receptor (Homo sapiens) (UniProt P03372); test: qHTS assay to identify small molecule agonists of the estrogen receptor alpha (ER-alpha) signaling pathway using the BG1 cell line (AID 743079); settings: BG1Luc4E2 cells, ERE-luciferase agonist, 22 h; activation: at 70.3 µM (top of the series) unless noted; further: nearly all actives have a fitted effect of over 20% in size; further: potency means the concentration at half of the fitted maximal effect
# [16] = qHTS RealTime-Glo MT Cell Viability Assay in HEK293 cells - 16 hour (AID 1224872)
# Summary of the method: (§1)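 HEK293 cells seeded with NanoLuc/prosubstrate reagent, rested 5 h at 37 C, then dosed and kept at 37 C up to 40 h. Nonlytic real-time luminescence from viable cells read at 0, 8, 16, 24, 32 and 40 h.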
# [17] = qHTS RealTime-Glo MT Cell Viability Assay in HEK293 cells - 32 hour (AID 1224868); further: nearly all actives have a fitted effect of over 50% in size; further: potency means the concentration at half of the fitted maximal effect
# Summary of the method: as §1
# [18] = qHTS assay for identifying genotoxic compounds that show differential cytotoxicity against isogenic chicken DT40 cell lines with known DNA damage response pathways - Rad54/Ku70 mutant cell line (AID 743015); settings: DT40 Rad54/Ku70 mutant viability, CellTiter-Glo, 40 h; activity change, negative = cytotoxicity: at 66.8 µM (top of the series) unless noted; further: nearly all actives have a fitted effect of over 60% in size; further: potency means the concentration at half of the fitted maximal effect
# Tags describe the fitted curve by direction and shape or compound fluorescence and quenching.
compound,measurement,setting,value
COc1ccc2cc1Oc1cc3c(cc1OC)CC[N+](C)(C)[C@H]3Cc1ccc(cc1)Oc1c(OC)c(OC)cc3c1[C@@H](C2)[N+](C)(C)CC3,"activity change, negative = cytotoxicity",[1],inconclusive: 32.2%
same,Potency,[2],inactive
same,Potency,[3],"inconclusive: 26.8 µM [falling, single point]"
same,Potency,[4],inactive
CCCC[N+](C)(CCCC)CCCC,Potency,[5],inactive
same,Potency,[6],"inconclusive: 47.6 µM [activator, partial curve, poor fit]"
Cc1ccccc1OCC1CO1 (configuration not stated),Potency,[7],inactive
same,Potency,[8],inactive
same,Potency,[9],inactive
same,Potency,[10],inactive
O=C(O)c1ccccc1S,Potency,[11],"inconclusive: 12 µM [rising, partial curve, poor fit]"
same,Potency,[5],inactive
same,Potency,[8],inactive
same,Potency,[3],inactive
same,Potency,[12],"inconclusive: 0.0952 µM [activator, single point]"
same,activation,[13],inconclusive: 5.52% [at 42.5 µM]
CC1(C)C(=O)N(Cl)C(=O)N1Cl,Potency,[11],"inconclusive: 0.0276 µM [cytotoxic, full curve, poor fit]"
same,Potency,[4],inactive
N#Cc1ccc(C2CCCc3cncn32)cc1 (configuration not stated),Potency,[7],"inconclusive: 0.876 µM [cytotoxic, full curve]"
same,Potency,[11],"inconclusive: 0.781 µM [rising, full curve]"
same,Potency,[14],"inconclusive: 11 µM [cytotoxic, single point]"
same,Potency,[10],"inconclusive: 1.38 µM [inhibitor, full curve, poor fit]"
same,Potency,[4],inactive
CC(C)c1ccc(C(C)C)cc1,Potency,[7],inactive
same,activation,[15],inconclusive: 11.8% [phenotype inactive] [at 95 µM]
same,Potency,[2],"inconclusive: 21.9 µM [cytotoxic, partial curve, poor fit]"
NS(=O)(=O)c1ccccc1OC(F)(F)F,Potency,[3],inactive
same,Potency,[12],inactive
same,Potency,[16],inactive
CC(CN1CC(=O)NC(=O)C1)N1CC(=O)NC(=O)C1 (configuration not stated),Potency,[7],inactive
same,Potency,[10],inactive
same,Potency,[17],inactive
same,Potency,[6],"inconclusive: 47.3 µM [activator, partial curve, poor fit]"
C1COCO1,Potency,[11],"inconclusive: 54.9 µM [rising, partial curve, poor fit]"
same,Potency,[1],"inconclusive: 0.0155 µM [cytotoxic, full curve, poor fit]"
same,Potency,[10],inactive
[K+],Potency,[18],inactive
same,Potency,[1],inactive
same,Potency,[3],"inconclusive: 61.6 µM [falling, partial curve, poor fit]"
CCCCNC1CC(C)(C)NC(C)(C)C1,Potency,[18],"inconclusive: 68.6 µM [cytotoxic, single point]"
same,Potency,[9],inactive
same,Potency,[2],inactive
O=S(O)CO,Potency,[15],active: 26.6 µM
same,activation,[15],inconclusive: 9.82% [phenotype inactive]
same,Potency,[10],inactive
same,Potency,[16],inactive
same,activation,[13],inconclusive: 14.2%
CC1=C(C=O)C(C)(C)CC=C1,Potency,[1],"inconclusive: 3.78 µM [rising, full curve, poor fit]"
same,Potency,[10],inactive
same,Potency,[17],inactive
N#CC1(N)CCCCC1,"activity, negative = inhibition",[7],inconclusive: 19% [at 79.1 µM]
same,Potency,[14],inactive
Nc1ncnc2c1ncn2Cc1c(F)cccc1Cl,Potency,[6],inconclusive: 26.6 µM [activator]
CCCCCCCCCCCCCCCCCCN(C)C,Potency,[14],"inconclusive: 16.9 µM [rising, partial curve, poor fit]"
same,Potency,[3],inactive
same,Potency,[12],"inconclusive: 26.8 µM [activator, partial curve, poor fit]"
O=C1OC(=O)c2c(Cl)c(Cl)c(Cl)c(Cl)c21,Potency,[1],"inconclusive: 0.197 µM [rising, single point]"
same,"activity change, negative = inhibition",[8],inconclusive: -5.78%
same,Potency,[2],"inconclusive: 24.5 µM [cytotoxic, partial curve, poor fit]"
same,Potency,[10],"inconclusive: 54.5 µM [inhibitor, partial curve]"
same,Potency,[17],"inconclusive: 24.5 µM [cytotoxic, partial curve]"
same,Potency,[6],"inconclusive: 61.8 µM [activator, single point]"
NCCc1ccn[nH]1,Potency,[7],inactive
CCN(CC)C(=O)c1cccc(C)c1,Potency,[7],inactive
same,Potency,[15],active: 2.66 µM and inactive
same,Potency,[1],"inconclusive: 1.93 µM [cytotoxic, full curve, poor fit]"
same,Potency,[8],"inconclusive: 54.4 µM [activator, partial curve, poor fit]"
same,Potency,[10],"inactive and inconclusive: 12.2 µM [inhibitor, full curve]"
CC(=O)Nc1ccc(O)cc1,Potency,[9],"inconclusive: 13.3 µM [rising, partial curve, poor fit]"
same,Potency,[14],"inconclusive: 5.69 µM [cytotoxic, partial curve, poor fit]"
CC1=CC(C)C(C=O)C(C)C1 (configuration not stated),Potency,[18],"inconclusive: 68.6 µM [cytotoxic, partial curve, poor fit]"
same,Potency,[11],"inconclusive: 61.6 µM [rising, single point]"
same,Potency,[2],inactive
same,Potency,[4],"inconclusive: 15.4 µM [cytotoxic, partial curve, poor fit]"
CN1C(CCl)Nc2cc(Cl)c(S(N)(=O)=O)cc2S1(=O)=O (configuration not stated),Potency,[15],inactive
same,Potency,[5],inactive
CCCNC(C)C(=O)Nc1c(C)csc1C(=O)OC (configuration not stated),Potency,[15],inactive
same,Potency,[10],inactive
same,Potency,[4],inactive
CCCc1cc(C(N)=S)ccn1,Potency,[18],inactive
same,Potency,[9],"inconclusive: 0.237 µM [rising, full curve, poor fit]"
same,Potency,[10],inactive
O=C(O)COc1nn(Cc2ccccc2)c2ccccc12,activation,[5],inconclusive: 7.26%
same,Potency,[10],inactive
NC(=O)c1ccc([N+](=O)[O-])cc1Cl,Potency,[2],inactive
same,Potency,[14],"inconclusive: 54.9 µM [cytotoxic, single point]"
same,Potency,[3],inactive
